# Measured values reported in PubChem BioAssay AID1460 (National Center for Advancing Translational Sciences (NCATS), 2008).
# About 5,800 (2.1%) of roughly 270,000 compounds were called active. The inconclusive results got no clear call from the source; some entries with a clear call stand among them for comparison. Calls follow the shape of the dose curve; as a rule, active = well fitted inhibition curve with a large enough effect; inconclusive = small, poorly fitted or top-dose-only effect; inactive = flat fitted curve, though single readings scatter. Potencies beside an inconclusive call are fits to weak or partial responses and may not hold up.
# Target: Microtubule-associated protein tau (Homo sapiens) (UniProt P10636)
# Chain of UniProt P10636 (P10636 whole entry, looked up): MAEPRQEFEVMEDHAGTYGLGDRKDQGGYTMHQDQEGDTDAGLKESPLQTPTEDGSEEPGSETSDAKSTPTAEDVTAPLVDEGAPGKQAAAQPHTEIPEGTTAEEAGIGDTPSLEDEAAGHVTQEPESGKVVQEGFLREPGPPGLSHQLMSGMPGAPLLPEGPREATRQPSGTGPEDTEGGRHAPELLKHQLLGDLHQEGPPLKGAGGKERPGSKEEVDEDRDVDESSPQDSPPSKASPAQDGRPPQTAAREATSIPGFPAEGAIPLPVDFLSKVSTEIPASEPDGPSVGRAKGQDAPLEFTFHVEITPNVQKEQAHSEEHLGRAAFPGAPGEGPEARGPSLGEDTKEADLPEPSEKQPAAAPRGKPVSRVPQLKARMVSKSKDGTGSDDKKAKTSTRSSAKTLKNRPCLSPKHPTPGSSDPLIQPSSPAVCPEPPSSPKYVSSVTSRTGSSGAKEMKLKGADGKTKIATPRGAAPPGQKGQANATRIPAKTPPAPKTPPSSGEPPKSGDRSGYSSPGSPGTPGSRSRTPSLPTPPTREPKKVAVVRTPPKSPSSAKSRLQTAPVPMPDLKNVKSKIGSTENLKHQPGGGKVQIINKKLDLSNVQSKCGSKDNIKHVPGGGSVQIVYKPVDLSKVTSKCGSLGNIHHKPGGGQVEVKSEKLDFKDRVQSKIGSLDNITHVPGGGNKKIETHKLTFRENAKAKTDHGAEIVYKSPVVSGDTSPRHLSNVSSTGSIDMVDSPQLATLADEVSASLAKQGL
# Test: qHTS for Inhibitors of Tau Fibril Formation, Thioflavin T Binding; also: nearly all actives have a fitted effect of over 55% in size
# Conditions: recombinant tau K18 P301L, heparin-induced fibrillization, ThT fluorescence; series mostly up to 57.4 µM
# Method in brief: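 Fibril formation assay: tau K18 P301L at 15 uM with trace Alexa 594 label, heparin inducer 20 uM, pH 7 sodium acetate buffer, 37 C for 6 hr; endpoint ThT signal.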
# % is scaled to controls: 0 for no effect and ±100 for the full control effect; potency is read from the fitted curve at half-maximal effect; tags tell the direction and shape of the fitted curve.
Structure (SMILES),Potency,"activity, negative = inhibition"
C=CC[C@@H]1C=C[C@@H](O/N=C(/C)CCC(=O)OC[C@@H]2O[C@H](c3ccccc3)C=C[C@@H]2Oc2ccc(OC)cc2)[C@@H](CO)O1,"inconclusive: 0.178 µM [inhibitor, single point]",–
Cc1ccc(C(c2c(C)nn(-c3ccccc3)c2N)c2c(C)nn(-c3ccccc3)c2N)cc1,"inconclusive: 44.7 µM [inhibitor, single point]",–
COc1ccccc1CNC(=O)c1cnc2c(-c3ccccc3)c(C)nn2c1C,"inconclusive: 25.1 µM [inhibitor, partial curve]",–
Cc1c(O)ccc(/C=N/Nc2nc(-c3cccnc3)nc3ccccc23)c1O,"inconclusive: 2.24 µM [inhibitor, full curve]",–
COc1cc(OC)c2cc(-c3ccncc3)cnc2c1,"inconclusive: 14.1 µM [inhibitor, partial curve]",–
O=[n+]1c2c(n([O-])c3c1CCC3)CCCC2,inactive,–
CCN1CCN(Cc2ccc(NC(=O)c3cc(NC(=O)c4ccc5n[nH]nc5c4)cc(OC)c3)cc2C(F)(F)F)CC1,inactive,–
Cc1ccc(CSc2ncc(Cl)c(C(=O)Oc3ccc(F)cc3)n2)cc1,"inconclusive: 10 µM [inhibitor, partial curve]",–
COc1ccc(-c2noc(N3CCN(c4ccc(C)cc4)C(C)C3)n2)cc1OC (stereo unspecified),"inconclusive: 2.24 µM [inhibitor, full curve]",–
COc1ccc(CSc2nc(C)cc(=O)[nH]2)cc1Br,"inconclusive: 39.8 µM [inhibitor, single point]",–
COC(=O)N1C(C2CC2)=Cc2ccccc2C1CC(C)=O (stereo unspecified),inactive,–
O=c1cc(-c2ccccc2)[nH]n1-c1ccc([N+](=O)[O-])cc1,active: 12.6 µM,–
COC(=O)c1sc2cccc(F)c2c1S(=O)(=O)NCc1ccc(Cl)cc1,inactive,–
CCOC(=O)c1c(NC(=O)C(C)Sc2cn(CCNC(=O)c3ccccc3OC)c3ccccc23)sc2c1CCC2 (stereo unspecified),"inconclusive: 1 µM [inhibitor, full curve, poor fit]",–
CCCC(=O)C1=C(c2cccc(OC)c2)N(C(=O)CCC)n2c(C)nnc2S1,"inconclusive: 17.8 µM [inhibitor, partial curve]",–
CCOC(=O)c1ccc2c(c1)[C@@H]1C=CC[C@@H]1[C@H](c1cccc(OC)c1OC)N2,"inconclusive: 28.2 µM [inhibitor, partial curve]",–
CC(=O)Nc1nonc1NC(=O)CSC1=NCCS1,inactive,–
O=C(CC(Nc1ccccc1Cl)C(=O)O)c1ccccc1 (stereo unspecified),"inconclusive: 14.1 µM [inhibitor, partial curve]",–
Cn1c(SCC(=O)Nc2ccccc2)nc(O)cc1=O,"inconclusive: 12.6 µM [inhibitor, partial curve]",–
COc1ccc(C2CC(=O)Oc3cc(C)c(Cl)c(C)c32)cc1 (stereo unspecified),inactive,–
COc1ccccc1CNC(=O)c1ccoc1C,inactive,–
Cc1cccc(OCC(O)CN2CC3(C)CC2CC(C)(C)C3)c1 (stereo unspecified),inactive,–
Cc1nc(C)c(CC(=O)N2CCc3c([nH]c4ccccc34)C2c2ccccn2)s1 (stereo unspecified),inactive,–
Cc1ccc(C)c(S(=O)(=O)NCCc2csc(-c3ccc(Cl)cc3)n2)c1,inactive,–
CN(C)S(=O)(=O)c1cccc(C(=O)Nc2ccc(N3CCOCC3)cc2)c1,"inconclusive: 25.1 µM [inhibitor, single point]",–
COc1ccc(OC)c(/C=C(\C#N)c2nc3ccccc3c(=O)[nH]2)c1,"inconclusive: 2.82 µM [inhibitor, partial curve]",–

Structure (SMILES),Potency,"activity, negative = inhibition"
CO[C@H]1COC(=O)[C@@H](Cc2ccccc2)NC(=O)[C@@H](C)COC(=O)CCC[C@@H]1C,–,inactive: -12.7% [at 11.5 µM]
O=C(COC(=O)c1ccc(Oc2ccccc2)cc1)Nc1nnc(-c2ccccc2)o1,"inconclusive: 17.8 µM [inhibitor, single point]",–
COc1ccc(C(=O)Nc2ccccc2-c2nc(-c3ccc(OC)cc3)no2)cc1,"inconclusive: 3.16 µM [inhibitor, partial curve]",–
Nc1cccc(-c2cn3cc(C(F)(F)F)cc(Cl)c3n2)c1,"inconclusive: 39.8 µM [inhibitor, partial curve, poor fit]",–
CC(=O)c1ccc(N2CCN(C(=O)c3cc4ccc5cccnc5c4[nH]3)CC2)cc1,"inconclusive: 10 µM [inhibitor, partial curve]",–
CCc1nn(CC(=O)N2CCN(c3ccc(Cl)cc3)CC2)c(=O)c2cc3occc3n12,"inconclusive: 17.8 µM [inhibitor, partial curve]",–
CCn1c(=O)n(-c2cccc(Cl)c2)c(=O)c2sc3ccccc3c21,"inconclusive: 35.5 µM [activator, single point]",–
S=c1[nH]nc(CSc2nc3ccccc3s2)n1C1CCCCC1,inactive,–
Cc1cccc(OCC(=O)Nc2ccc3oc(-c4ccccc4F)nc3c2)c1,"inconclusive: 0.501 µM [inhibitor, full curve]",–
CN(C)/C=N/C(=S)Nc1ccccc1Cl,inactive,–
O=[N+]([O-])c1nn(-c2ccc3c(c2)OCCO3)n(O)c1=Nc1ccc(Cl)cc1,active: 14.1 µM,–
CCOC(=O)C1CCN(C(=O)c2ccc3c(c2)sc2nc(-c4ccc(C)cc4)cn23)CC1,inactive,–
O=C(c1cc(COc2ccc(F)cc2Cl)on1)N1CCCC(OCc2cccnc2)C1 (stereo unspecified),inactive,–
CCN(CC)c1ccc(C(=O)OCc2cc(=O)oc3cc(O)ccc23)cc1,"inconclusive: 2.51 µM [inhibitor, full curve]",–
CCN(CC)S(=O)(=O)c1ccc(C(=O)NC2=C(C(=O)OC)SCC2)cc1,"inconclusive: 28.2 µM [inhibitor, partial curve]",–
Cc1ccc(C(=O)O)cc1NC(=S)NC(=O)c1ccc(-c2ccccc2)cc1,"inconclusive: 4.47 µM [inhibitor, full curve, poor fit]",–
CCN(CC)CCN1C(=O)C(O)=C(C(=O)c2cc3cccc(OC)c3o2)C1c1ccc(F)cc1 (stereo unspecified),"inconclusive: 28.2 µM [inhibitor, single point]",–
CC(=O)Nc1ccc(S(=O)(=O)NCC(=O)OCC(=O)NC(=O)c2cccn2C)cc1,"inconclusive: 10 µM [inhibitor, partial curve]",–
Cc1cccc(/C=N/NC(=O)C2CCCNC2=O)c1 (stereo unspecified),inactive,–
Cc1cnn(C(=S)NCCc2ccccc2)c1,inactive,–
Cc1cccc(C)c1OCCNC(=O)c1ccc2ccccc2n1,"inconclusive: 35.5 µM [inhibitor, single point]",–
C=CCN(CC=C)C(=S)NC(=O)c1ccc(OC)c(Br)c1,inactive,–
Cc1[nH]c2ccccc2c1CN1CCN(c2ccccn2)CC1,"inconclusive: 15.8 µM [inhibitor, partial curve]",–
Cn1ccc2c(OCC(=O)Nc3ccc([N+](=O)[O-])cc3)cccc2c1=O,"inconclusive: 7.08 µM [inhibitor, partial curve, poor fit]",–
NC(=O)c1ccsc1NC(=O)COC(=O)Cc1cccc2ccccc12,"inconclusive: 44.7 µM [inhibitor, single point]",–
Cc1cccc(/C=N/N2CCN(c3ccccc3)CC2)c1,"inconclusive: 1.12 µM [inhibitor, partial curve]",–

Structure (SMILES),Potency,"activity, negative = inhibition"
COc1ccc(CNc2ccc(-c3ccc(OC)cc3)nn2)cc1,"inconclusive: 1.26 µM [inhibitor, partial curve]",–
COc1ccc2c(c1)C(SCC(=O)NCCc1ccc(Cl)cc1)CC(C)(C)O2 (stereo unspecified),"inconclusive: 31.6 µM [inhibitor, single point]",–
O=c1c2cn[nH]c2nc(SCc2ccccc2F)n1-c1ccc(Br)cc1,"inconclusive: 14.1 µM [inhibitor, partial curve]",–
O=C(C[n+]1cc(-c2ccc(Cl)cc2)n2c1CCCCC2)c1ccccc1,inactive,–
COC(=O)c1cc(C)sc1NC(=S)N1CCN(CCc2ccccc2)CC1,"inconclusive: 39.8 µM [inhibitor, single point]",–
Cc1nnc(SCC(=O)N2c3ccccc3CC2C)s1 (stereo unspecified),inactive,–
COc1cc(OC)cc(-c2nnc(SCC(=O)N3CCCc4ccccc43)o2)c1,"inconclusive: 10 µM [inhibitor, partial curve]",–
COc1ccc2nc(C)cc(SCC(=O)N/N=C/c3ccc(O)cc3O)c2c1,"inconclusive: 11.2 µM [inhibitor, partial curve]",–
COc1ccc(OCC(=O)N/N=C(\C)c2cc3ccccc3o2)cc1,"inconclusive: 2 µM [inhibitor, full curve]",–
CC(=O)OCCNc1cc(SCc2ccco2)c2nonc2c1[N+](=O)[O-],active: 7.08 µM,–
COc1ccc(/C=N/NC(=O)CCc2n[nH]c(=O)[nH]c2=O)cc1OC,"inconclusive: 39.8 µM [inhibitor, single point]",–
CCSc1nc2ccccc2[nH]1,inactive,–
CCc1ccccc1N(C)C(=O)c1nn(C)c2c1CSc1ccccc1-2,inactive,–
CN1/C(=C\C(=S)Nc2ccccc2)C(C)(C)c2ccccc21,"inconclusive: 25.1 µM [inhibitor, partial curve]",–
Cn1c(NN)nc2ccccc2c1=O,"inconclusive: 25.1 µM [inhibitor, partial curve]",–
CC(=O)Nc1scc(C)c1-c1nc2ccccc2s1,"inconclusive: 10 µM [inhibitor, partial curve, poor fit]",–
Cc1ccccc1C(=O)NC1(C(F)(F)F)N=C(c2ccccc2)N(Cc2ccccc2)C1=O (stereo unspecified),"inconclusive: 17.8 µM [inhibitor, partial curve]",–
CCOC(=O)c1c(C)[nH]c(C(=O)CSc2nnc(Nc3ccccc3F)s2)c1C,inactive,–
Cc1onc(-c2ccccc2)c1C(=O)NC(=S)Nc1sc2c(c1C#N)CCC(C)C2 (stereo unspecified),"inconclusive: 15.8 µM [inhibitor, partial curve]",–
CCOC(=O)CSc1nc2ccc(N3CCOCC3)cc2c(=O)n1Cc1ccccc1,"inconclusive: 12.6 µM [inhibitor, partial curve]",–
Nc1cccc2c1C(=O)N(C(=O)/C=C/c1ccc(F)cc1)C2=O,active: 25.1 µM,–
N#Cc1c(/N=C/c2cccnc2)sc2c1CCCC2,"inconclusive: 4.47 µM [inhibitor, partial curve]",–
CCCCc1nc2c(c3c1C[C@H](C)OC3)CN(C(=O)C1CCCCC1)CC2,–,inactive: 10.7% [at 11.5 µM]
CCCc1nc(SCC(=O)c2ccc(OC)cc2)c2ccccc2n1,"inconclusive: 15.8 µM [inhibitor, partial curve]",–
